Experimental findings from ChEMBL document CHEMBL4888484, “Replenishing the malaria drug discovery pipeline: Screening and hit evaluation of the MMV Hit Generation Library 1 (HGL1) against asexual blood stage Plasmodium falciparum ,using a nano luciferase reporter read-out” (2022) are described below.

Screen size: about 150,000 compounds; about 540 (0.36%) showed an effect of 50% or more. The list shows a part of the results.

This experiment deals with Plasmodium falciparum. The experiment is described as follows: Primary screen in NF54 nanoGlo assay, in single point, at 2uM, 72h; a lower Z score goes with more inhibition. It counts as functional, Erythrocyte. Conditions: timepoint 72 hour.
For `CC(C)OCCCNC(=O)Nc1cnn(C)c1`, the “% Inhibition” value is 12% and the Z score was -2.19.
Turning to `Cc1ccc(Cl)cc1N1CCN(C(=O)c2cccc(Nc3nc4ccccc4n4cnnc34)c2)CC1`, the “% Inhibition” value was -3% and the Z score worked out at 0.56.
The matching figures for `CN(CC1(CO)CCCC1)C(=O)CN1CCCCC1`: -8% and 1.48.
The matching figures for `Cc1c(C#N)c(NC(=O)CCN2CCOCC2)n(Cc2ccco2)c1C`: 9% and -0.75.
In the same order, the values of `COc1ccc2c(c1)N(Cc1cn(C)nc1C)C[C@H](C)O2` are -8% and 0.73.
On to `O=C(Nc1ccc(-c2ccn[nH]2)cc1)[C@H]1CCCN(Cc2cc3ccccc3o2)C1`, for which the “% Inhibition” value worked out at 3% and the Z score is -0.39.
The matching figures for `CC(C)(C)OC(=O)N1CCCC1C1CCCCN1S(=O)(=O)c1ccc(F)c(F)c1` (stereo not given): 10% and -1.55.
In the same order, the values of `CC(C)CC(=O)N1CC(C(=O)N2CCN(C)CC2)C(c2cccc(C(F)(F)F)c2)C1` (stereo not given) are -11% and 1.2.
The matching figures for `Clc1ccc(-c2nnc([C@@H]3CCCCO3)o2)nc1`: -4% and 0.79.
On to `O=S(=O)(CCC1Cc2ccccc2C1)N1CCC[C@@](O)(C(F)(F)F)CC1`, for which the “% Inhibition” value is given as 34% and the Z score is on record as -3.86.
The matching figures for `CC(C)CN1CC2(CCN(C(=O)COC[C@H]3CCCCO3)CC2)CC1=O`: -5% and 0.66.
The matching figures for `Cc1ccccc1[C@H]1CCCN(C(=O)CCn2ccc(=O)[nH]c2=O)C1`: -1% and 0.11.
The matching figures for `CCC(CC#N)NC(=O)CC(C)c1c(C)n[nH]c1C` (stereo not given): -3% and 0.45.
On to `O=S1(=O)CCN(c2nnc(Cc3ccc(Cl)cc3)s2)CCC12CCC2`, for which the “% Inhibition” value was -3% and the Z score is given as 0.51.
In the same order, the values of `O=C(CCCc1cn[nH]c1)N1CCC(O)(CO)CC1` are -9% and 1.29.
The matching figures for `COC(=O)C(C)(C)NC(=O)c1ccc(Cl)cc1F`: -5% and 0.62.
As to `C[C@H]1COCCN1Cn1ccc(-c2cccs2)n1`, the “% Inhibition” value was -9% and the Z score was 1.65.
In the same order, the values of `CCC(=O)N(CCN(C)C)Cc1c(-c2ccccc2)noc1N(CC)CC` are -11% and 1.25.
In the same order, the values of `CC(C)(C)n1cc(CNc2nnc(-c3ccc4c(c3)OCO4)o2)cn1` are -12% and 1.09.
The matching figures for `Cc1ccccc1C(=O)c1cccn1CC(=O)NC1CCCCCC1`: -1% and 0.24.
As for `Cn1nnc2c(C(=O)N3CCCc4cccc(OC(F)F)c43)ccnc21`, the “% Inhibition” value is -5% and the Z score amounted to 0.69.
The matching figures for `Cc1ccc2c(c1)N(CC(=O)NCCc1ccccc1)C=NS2(=O)=O`: -5% and 0.56.
In the same order, the values of `CN(C)C(=O)N1CCC(CNC(=O)c2ccc(Br)o2)CC1` are -5% and 0.57.
The matching figures for `O=C(O)c1sc(Cl)cc1S(=O)(=O)NC1CCN(Cc2cccs2)CC1`: 2% and -0.24.
Turning to `CC1C(NC(=O)NC[C@@H]2Cc3ccccc3CO2)CC(=O)N1Cc1ccccc1` (stereo not given in full), the “% Inhibition” value was -1% and the Z score turned out to be 0.11.
The matching figures for `Cc1cc(C(=O)N[C@H](CO)C(C)C)ccc1Cl`: -2% and 0.29.
The matching figures for `O=C(Nc1cccc(-c2ncco2)c1)N(CCO)C1CCCCC1`: -4% and 0.41.
The matching figures for `O=C(N[C@H]1C[C@@H]2C[C@H]1CN2C(=O)Nc1ccc(C(F)(F)F)cc1)c1cccs1`: -3% and 0.42.
On to `O=C(N[C@@H](Cc1ccccc1)c1ncon1)c1ccoc1C1CC1`, for which the “% Inhibition” value is -3% and the Z score came to 0.49.
In the same order, the values of `CCN(Cc1ccccc1)c1ccc(C(=O)O)cc1NC(=O)c1ccc(Cl)cc1` are 3% and -0.65.
In the same order, the values of `CCn1cnnc1[C@H](C)NS(=O)(=O)CC` are -3% and 0.39.
In the same order, the values of `Cc1nc(-c2ccccc2Cl)sc1CNC(=O)c1cc(-c2cccs2)nn1C` are 3% and -0.59.
In the case of `Cc1nn(C)c(C)c1CNC(=O)[C@H]1CCCN(S(=O)(=O)c2ccccc2)CCc2nnc(-c3cccnc3)n2CC1`, the “% Inhibition” value was -4% and the Z score is reported as 0.51.
In the same order, the values of `CCOCC(=O)OCCc1scnc1C` are -2% and 0.27.
The matching figures for `CS(=O)(=O)N[C@H]1CCCN(C(=O)C2=Cc3ccccc3OC2)C1`: 40% and -3.6.
The matching figures for `Cc1ccnc(NC(=O)C2=NN(c3ccccc3)[C@H](C(N)=O)C2)c1`: -11% and 0.97.
Take `Cc1ccc(C(=O)N(Cc2cccc(C)c2)c2ccc(CC(=O)NCc3ccccn3)cc2)cc1`: the “% Inhibition” value is given as -6% and the Z score stood at 0.78.
The matching figures for `COCc1nc([C@H]2CCOC2)cc(N2CCC(NS(C)(=O)=O)CC2)n1`: 9% and -0.81.
The matching figures for `C[C@H](NCc1ccccc1Cl)C(=O)Nc1ccc2ccccc2c1`: -3% and 0.37.
In the same order, the values of `CC1CC(NCc2ccc3c(c2)OCCO3)C1` (stereo not given) are -10% and 1.65.
For the compound `CC(C)(C)CCS(=O)(=O)NCCc1cn([C@H]2CCOC2)nn1`, the “% Inhibition” value is on record as -12% and the Z score turned out to be 1.2.
The matching figures for `O=C(NCC1(CO)CCC1)C1(O)CCC1`: 6% and -0.98.
In the same order, the values of `Cc1ccc(N2C[C@@H](C(=O)N(C)Cc3cc(C)on3)CC2=O)cc1` are 3% and -0.51.
In the same order, the values of `Cn1nc(-c2ccccc2)c(CN(C[C@H]2CCCO2)C(=O)C2CCC2)c1Oc1ccc(F)cc1` are -6% and 0.58.
Regarding `CC(=O)NCCn1ccnc1-c1ccc(F)c(F)c1F`, the “% Inhibition” value is on record as -9% and the Z score is given as 1.18.
For the compound `CCC1COCCN1C(=O)C1C2CCCCC21` (stereo not given), the “% Inhibition” value is -3% and the Z score came to 0.5.
The matching figures for `Cc1csc2c(N3CCCn4cncc4C3)ncnc12`: 0% and -0.07.
As for `CCCNC(=O)OC[C@H]1CCCCN1Cc1c(CC)nn(C)c1CC`, the “% Inhibition” value is listed as -6% and the Z score stood at 0.88.
The matching figures for `c1ccc(-c2nc(NCc3nnc4n3CCC4)c3ccccc3n2)cc1`: -2% and 0.41.
In the same order, the values of `Cc1cccc(C(NC(=O)N2CCC[C@H]2CO)C(F)(F)F)c1` (stereo not given in full) are -6% and 1.06.
The matching figures for `Cc1ccc(-c2cccc(-c3ccn(Cc4c(C)noc4C)n3)c2)c(C)n1`: -5% and 0.64.
On to `CCN(Cc1nc2cc(Cl)ccc2c(=O)[nH]1)C(=O)COc1c(C)cc(Br)cc1Cl`, for which the “% Inhibition” value is 1% and the Z score is listed as -0.13.
Turning to `COC(=O)C1CC(OC)CN1C(=O)c1cc(C)on1` (stereo not given), the “% Inhibition” value is reported as -16% and the Z score is 3.
In the same order, the values of `COc1ccc2c(c1)OC13CCN(C)CC1C2C(C(=O)c1ccccc1OC)C(=O)N3` (stereo not given) are 58% and -6.85.
In the case of `COc1ccc(CNC(=O)[C@]2(C)Cn3cnc(C(=O)NCc4cccc(OC)c4)c3C(=O)N2C2CC2)cc1`, the “% Inhibition” value is recorded as -7% and the Z score is listed as 1.13.
The matching figures for `F[C@@H]1CN(Cc2cnc3ccccc3c2)C[C@@H]1OCc1nc2ccccc2[nH]1`: -10% and 1.51.
Take `CN(CC(=O)Nc1cccc(F)c1)CC(=O)Nc1ccccc1Cc1ccccc1`: the “% Inhibition” value is reported as 11% and the Z score is -1.23.
Take `Cc1ccc(OCc2c(C(=O)N3C[C@@H](C)O[C@@H](C)C3)c(=O)cc(C)n2CCN2CCOCC2)cc1`: the “% Inhibition” value is given as 6% and the Z score is listed as -0.85.
In the same order, the values of `C=C=CCNC(=O)c1nc(C2CC2)no1` are 5% and -0.73.
The matching figures for `O=C(NCc1ccc(Cl)cc1)c1nn[nH]c1Nc1ccccc1F`: -5% and 0.65.
The matching figures for `COc1nc(NC(=O)Cc2coc(-c3ccc(F)cc3)n2)n[nH]1`: 1% and -0.15.
Take `CCCn1ncc(-c2nc(CC(N)=O)nn2CC(C)(C)O)c1C`: the “% Inhibition” value was -10% and the Z score came out at 1.7.
In the same order, the values of `CC1(CCNC(=O)N2CCCC(C3CCCCO3)C2)CC1(F)Cl` (stereo not given) are -7% and 0.93.
In the same order, the values of `Cc1cccc(C2CC(NC[C@@]3(CCO)CCOC3)C2)c1` (stereo not given in full) are -1% and 0.08.
In the same order, the values of `CC(C)c1cc(C(=O)N[C@H](CO)Cc2cncs2)no1` are 1% and -0.18.
Take `O=c1c(C(F)(F)F)cccn1Cc1nc2c(F)cccc2[nH]1`: the “% Inhibition” value was -1% and the Z score amounted to 0.22.
The matching figures for `Nc1nc(C2CC2)ncc1C(=O)NCc1[nH]nc2c1CCCC2`: -7% and 0.94.
In the same order, the values of `CCCn1ccnc1CN1CCN(C)[C@]2(CCC(=O)N(CC3CC3)CC2)C1` are -13% and 2.14.
In the same order, the values of `CC1CN(C(=O)c2ccccc2)OC(c2cccs2)O1` (stereo not given) are -2% and 0.28.
On to `COc1cc2c(cc1OC)CN(C(=O)c1ccc3nsnc3c1)CC2`, for which the “% Inhibition” value is reported as -7% and the Z score was determined as 1.04.
In the same order, the values of `Cc1[nH]ccc1C(=O)N[C@@H](C)c1cnn(C)c1C` are -18% and 1.81.
The matching figures for `COCCn1cc(CNC(=O)CC2(C)CCCC2)c(=O)[nH]c1=O`: -9% and 1.32.
In the same order, the values of `COc1ccc(Br)cc1Cn1nnc(C(=O)O)c1-c1cccnc1` are -8% and 0.88.
With `CCOc1ccc(-c2cc3cc(OC)c(OC)cc3c[n+]2[C@H](C(=O)O)C(C)C)cc1`, the “% Inhibition” value turned out to be 15% and the Z score is reported as -2.39.
The matching figures for `CCNC(=O)CCCc1nc2cccnc2n1CCOC`: -9% and 1.09.
In the same order, the values of `COc1cc(C)cc(NC(=O)N[C@@H]2COC[C@@H]2Oc2cn[nH]c2)c1C` are -14% and 1.66.
Take `CO[C@@]1(CNc2nc3cc(C)ccc3o2)CCS(=O)(=O)C1`: the “% Inhibition” value was determined as 10% and the Z score is reported as -1.69.
In the same order, the values of `CC1(C(=O)Nc2cccc(-c3n[nH]c(=O)[nH]3)c2)CCCCCC1` are 0% and 0.02.
The matching figures for `CC(=O)Nc1nc(C(=O)N2CCc3c(F)ccc(F)c32)cs1`: 10% and -1.93.
In the same order, the values of `CCN(CC(=O)NC)C(=O)CCN(Cc1ccccc1)C(C)=O` are 3% and -0.43.
As to `O=C(NCCCC1CCCC1)N1CCN(c2nccs2)CC1`, the “% Inhibition” value is -3% and the Z score was determined as 0.42.
In the same order, the values of `O=C(NCc1noc2c1CCCC2)[C@H]1C[C@@H]1C1CC1` are -4% and 0.61.
Take `CN1CCN(c2cc(N3CCN(C(=O)Cc4ccc(Cl)cc4)CC3)ncn2)CC1`: the “% Inhibition” value came out at 4% and the Z score is -0.61.
As to `Clc1cccnc1OC[C@H]1CCCOC1`, the “% Inhibition” value came out at 2% and the Z score is -0.28.
In the same order, the values of `O=C(c1cccs1)N(CCS(=O)(=O)N1CCNCC1)C1CCCC1` are 10% and -1.14.
